# Reference: patent US5633345A, “Cyclic peptides” (priority 1992, dated 1997)
# Not every detail of the peptide structures is certain; ends, links or a residue may be inferred. Starred links: 1 amine or outer side, 2 acyl side, 3 side chain; linkers in the order of their positions; H or OH if unused. Non-standard residues stand in square brackets, D forms with d. Residues, ends and D or L forms follow the SMILES beside them. *: point of attachment. X7 = CC(=O)OC(c1ccccc1)[C@@H](C(=O)[*:2])N(C)[*:1]; NMePhe(2-F) = CN[C@@H](Cc1ccccc1F)C(=O)O; X1 = CC[C@@H](C)[C@@H](O[*:1])C(=O)[*:2]; NMeVal(β-OH) = CN[C@H](C(=O)O)C(C)(C)O; X4 = CC(O)[C@@H](C)C(O[*:1])C(=O)[*:2]; X6 = CC(CO)[C@@H](C(=O)[*:2])N(C)[*:1]; Phe(2-F) = N[C@@H](Cc1ccccc1F)C(=O)O; NMeY = CN[C@@H](Cc1ccc(O)cc1)C(=O)O; NMeF = CN[C@@H](Cc1ccccc1)C(=O)O; aIle = CC[C@@H](C)[C@H](N)C(=O)O; Nva(5-OH) = N[C@@H](CCCO)C(=O)O; NMeL = CN[C@@H](CC(C)C)C(=O)O; NMeV = CN[C@H](C(=O)O)C(C)C; Thz = O=C(O)[C@@H]1CSCN1; Nva = CCC[C@H](N)C(=O)O; OBn = c1ccc(CO*)cc1
# Assays:
# Experiment in all cases: Antifungal activity, MIC by agar dilution method
# Settings in all cases: 30° C. for 2 days
# [1] = test system: C. albicans TIMM 0171; type: cell-based, Candida albicans
# Description: (§1) The minimum inhibitory concentration (MIC) values were determined after incubation at 30° C. for 2 days.
# [2] = test system: C. grabrata TIMM 1062; type: cell-based
# Description: as §1
# [3] = test system: C. kefyr TIMM 0301; type: cell-based
# Description: as §1
# [4] = test system: Candida albicans TIMM 0136; type: cell-based
# Description: as §1
# [5] = test system: Cryptococcus neoformans TIMM 0354; type: cell-based
# Description: as §1
SMILES,MIC ([1]; Casitone agar medium) [µg/mL],MIC ([2]; Casitone agar medium) [µg/mL],MIC ([3]; Casitone agar medium) [µg/mL],MIC ([4]; Casitone agar medium) [µg/mL],MIC ([5]; Casitone agar medium) [µg/mL],MIC ([1]; Sabouraud-dextrose agar medium) [µg/mL],MIC ([2]; Sabouraud-dextrose agar medium) [µg/mL],MIC ([3]; Sabouraud-dextrose agar medium) [µg/mL],MIC ([4]; Sabouraud-dextrose agar medium) [µg/mL],MIC ([5]; Sabouraud-dextrose agar medium) [µg/mL]
CCC[C@@H]1NC(=O)[C@H](C(C)C)N(C)C(=O)[C@H]([C@H](C)CC)NC(=O)[C@@H]2CCCN2C(=O)[C@H](Cc2ccccc2)N(C)C(=O)[C@H](Cc2ccccc2)NC(=O)[C@H](C(C)C)N(C)C(=O)[C@@H]([C@H](C)CC)OC(=O)[C@H](C(C)(C)O)N(C)C1=O [Compound 12] (cyclo(F[NMeF]P[aIle][NMeV][Nva][NMeVal(β-OH)][X1][NMeV])),0.10,0.20,0.20,0.05,6.25,–,–,–,–,–
"CCCC[C@@H]1NC(=O)[C@@H]2CCCN2C(=O)[C@H](Cc2ccccc2)N(C)C(=O)[C@H](Cc2ccccc2)NC(=O)[C@H](C(C)C)N(C)C(=O)[C@@H]([C@H](C)CC)OC(=O)[C@H](C(C)(C)O)N(C)C(=O)[C@H](CC(C)C)NC(=O)[C@H](C(C)C)N(C)C1=O [Compound 11] (HELM PEPTIDE1{F.[meF].P.[Nle].[meV].L.[CN([C@H](C(=O)[*:2])C(C)(C)O)[*:1]].[CC[C@@H](C)[C@@H](O[*:1])C(=O)[*:2]].[meV]}$PEPTIDE1,PEPTIDE1,1:R1-9:R2$$$V2.0)",0.20,0.78,1.56,0.20,> 25,–,–,–,–,–
"CC[C@@H](C)[C@@H]1NC(=O)[C@@H]2CCCN2C(=O)[C@H](Cc2ccccc2)N(C)C(=O)[C@H](Cc2ccccc2)NC(=O)[C@H](C(C)C)N(C)C(=O)[C@@H]([C@H](C)CC)OC(=O)[C@H]([C@@H](C)O)N(C)C(=O)[C@H](CC(C)C)NC(=O)[C@H](C(C)C)N(C)C1=O [Compound 19, Cyclo(L-aIle-L-MeVal-L-Leu-L-MeThr-D-Hmp-L-MeVal-L-Phe-L-MePhe-L-Pro)] (HELM PEPTIDE1{F.[meF].P.[CC[C@@H](C)[C@H](N[*:1])C(=O)[*:2]].[meV].L.[meT].[CC[C@@H](C)[C@@H](O[*:1])C(=O)[*:2]].[meV]}$PEPTIDE1,PEPTIDE1,1:R1-9:R2$$$V2.0)",–,–,–,–,–,0.10,0.78,0.39,0.10,> 25
"CC(C)C[C@@H]1NC(=O)[C@H](C(C)C)N(C)C(=O)[C@H](C(C)C)NC(=O)[C@@H]2CCCN2C(=O)[C@H](Cc2ccccc2)N(C)C(=O)[C@H](Cc2ccccc2)NC(=O)[C@H](C(C)C)N(C)C(=O)[C@@H](C(C)C)OC(=O)[C@H](C(C)(C)O)N(C)C1=O [Compound 25] (HELM PEPTIDE1{F.[meF].P.V.[meV].L.[CN([C@H](C(=O)[*:2])C(C)(C)O)[*:1]].[CC(C)[C@@H](O[*:1])C(=O)[*:2]].[meV]}$PEPTIDE1,PEPTIDE1,1:R1-9:R2$$$V2.0)",–,–,–,–,–,0.05,0.78,0.39,0.025,6.25
"CC[C@@H](C)[C@H]1OC(=O)[C@H](C(C)(C)O)N(C)C(=O)[C@H](CC(C)C)NC(=O)[C@H](C(C)C)N(C)C(=O)[C@H](C(C)C)NC(=O)[C@@H]2CCCN2C(=O)[C@H](Cc2ccccc2)N(C)C(=O)[C@H](Cc2ccccc2)NC(=O)[C@H](C(C)C)N(C)C1=O [Compound 3] (HELM PEPTIDE1{F.[meF].P.V.[meV].L.[CN([C@H](C(=O)[*:2])C(C)(C)O)[*:1]].[CC[C@@H](C)[C@@H](O[*:1])C(=O)[*:2]].[meV]}$PEPTIDE1,PEPTIDE1,1:R1-9:R2$$$V2.0)",0.10,0.20,0.20,0.10,1.56,–,–,–,–,–
CC[C@@H](C)[C@@H]1NC(=O)[C@@H]2CCCN2C(=O)[C@H](Cc2ccccc2F)N(C)C(=O)[C@H](Cc2ccccc2F)NC(=O)[C@H](C(C)C)N(C)C(=O)[C@@H]([C@H](C)CC)OC(=O)[C@H](C(C)(C)O)N(C)C(=O)[C@H](CC(C)C)NC(=O)[C@H](C(C)C)N(C)C1=O [Compound 7] (cyclo(L[NMeVal(β-OH)][X1][NMeV][Phe(2-F)][NMePhe(2-F)]P[aIle][NMeV])),0.10,0.20,0.20,0.10,> 25,–,–,–,–,–
"CC[C@@H](C)[C@@H]1NC(=O)[C@@H]2CCCN2C(=O)[C@H](Cc2ccccc2)N(C)C(=O)[C@H](Cc2ccccc2)NC(=O)[C@H](C(C)C)N(C)C(=O)[C@@H]([C@H](C)CC)OC(=O)[C@H](C(C)(C)O)N(C)C(=O)[C@H](CCCO)NC(=O)[C@H](C(C)C)N(C)C1=O [Compound 39, cyclo(L-aIle-L-MeVal-L-HONva-L-βHOMeVal-D-Hmp-L-MeVal-L-Phe-L-MePhe-L-Pro)] (cyclo(F[NMeF]P[aIle][NMeV][Nva(5-OH)][NMeVal(β-OH)][X1][NMeV]))",–,–,–,–,–,3.12,12.5,1.56,3.12,> 25
"CC[C@@H](C)[C@@H]1NC(=O)[C@@H]2CCCN2C(=O)[C@H](Cc2ccccc2)N(C)C(=O)[C@H](Cc2ccccc2)NC(=O)[C@H](C(C)C)N(C)C(=O)[C@@H]([C@H](C)CC)OC(=O)[C@H](C(C)(C)O)N(C)C(=O)[C@H](CC(C)C)NC(=O)[C@H](CC(C)C)N(C)C1=O [Compound 23, cyclo(L-aIle-L-MeLeu-L-Leu-L-βHOMeVal-D-Hmp-L-MeVal-L-Phe-L-MePhe-L-Pro)] (cyclo(F[NMeF]P[aIle][NMeL]L[NMeVal(β-OH)][X1][NMeV]))",–,–,–,–,–,0.20,0.78,0.78,0.10,1.56
CC[C@@H](C)[C@@H]1NC(=O)[C@@H]2CCCN2C(=O)[C@H](Cc2ccccc2)N(C)C(=O)[C@H](Cc2ccccc2)NC(=O)[C@H](C(C)C)N(C)C(=O)[C@@H]([C@H](C)CC)OC(=O)[C@H](C(C)CO)N(C)C(=O)[C@H](CC(C)C)NC(=O)[C@H](C(C)C)N(C)C1=O (stereo partly drawn) [Compound 4] (cyclo(F[NMeF]P[aIle][NMeV]L[X6][X1][NMeV])),0.10,1.56,0.78,0.20,25,–,–,–,–,–
CC[C@@H](C)[C@@H]1NC(=O)[C@@H]2CCCN2C(=O)[C@H](C(OC(C)=O)c2ccccc2)N(C)C(=O)[C@H](Cc2ccccc2)NC(=O)[C@H](C(C)C)N(C)C(=O)[C@@H]([C@H](C)CC)OC(=O)[C@H](C(C)(C)O)N(C)C(=O)[C@H](CC(C)C)NC(=O)[C@H](C(C)C)N(C)C1=O (stereo partly drawn) [Compound 15] (cyclo(F[X7]P[aIle][NMeV]L[NMeVal(β-OH)][X1][NMeV])),0.10,0.10,0.39,0.10,3.12,–,–,–,–,–
CC[C@@H](C)[C@@H]1NC(=O)[C@@H]2CCCN2C(=O)[C@H](Cc2ccccc2)N(C)C(=O)[C@H](Cc2ccccc2)NC(=O)[C@H](C(C)C)N(C)C(=O)C([C@H](C)C(C)O)OC(=O)[C@H](C(C)(C)O)N(C)C(=O)[C@H](CC(C)C)NC(=O)[C@H](C(C)C)N(C)C1=O (stereo partly drawn) [Compound 17] (cyclo(F[NMeF]P[aIle][NMeV]L[NMeVal(β-OH)][X4][NMeV])),–,–,–,–,–,0.10,0.78,0.39,0.10,3.12
"CC[C@@H](C)[C@H]1OC(=O)[C@H](C(C)(C)O)N(C)C(=O)[C@H](CC(C)C)NC(=O)[C@H](C(C)C)N(C)C(=O)[C@H](CCC(=O)OCc2ccccc2)NC(=O)[C@@H]2CCCN2C(=O)[C@H](Cc2ccccc2)N(C)C(=O)[C@H](Cc2ccccc2)NC(=O)[C@H](C(C)C)N(C)C1=O [Compound 26, cyclo(L-GluOR-L-MeVal-L-Leu-L-βHOMeVal-D-Hmp-L-MeVal-L-Phe-L-MePhe-L- Pro) (R: Bzl)] (cyclo(E(OBn)[NMeV]L[NMeVal(β-OH)][X1][NMeV]F[NMeF]P))",–,–,–,–,–,0.10,0.39,1.56,0.20,> 25
"CC[C@@H](C)[C@@H]1NC(=O)[C@@H]2CCCN2C(=O)[C@H](Cc2ccccc2)N(C)C(=O)[C@H](Cc2ccccc2)NC(=O)[C@H](C(C)C)N(C)C(=O)[C@@H]([C@H](C)CC)OC(=O)[C@H](C(C)(C)O)N(C)C(=O)[C@H]([C@H](C)CC)NC(=O)[C@H](C(C)C)N(C)C1=O [Compound 24, cyclo(L-aIle-L-MeVal-L-aIle-L-βHOMeVal-D-Hmp-L-MeVal-L-Phe-L-MePhe-L- Pro)] (cyclo(F[NMeF]P[aIle][NMeV][aIle][NMeVal(β-OH)][X1][NMeV]))",–,–,–,–,–,0.006,0.05,0.10,0.006,0.78
CC[C@@H](C)[C@@H]1NC(=O)[C@@H]2CCCN2C(=O)[C@H](Cc2ccc(O)cc2)N(C)C(=O)[C@H](Cc2ccccc2)NC(=O)[C@H](C(C)C)N(C)C(=O)[C@@H]([C@H](C)CC)OC(=O)[C@H](C(C)(C)O)N(C)C(=O)[C@H](CC(C)C)NC(=O)[C@H](C(C)C)N(C)C1=O [Compound 8] (cyclo(F[NMeY]P[aIle][NMeV]L[NMeVal(β-OH)][X1][NMeV])),–,–,–,–,–,0.39,1.56,0.78,0.39,> 25
CC[C@@H](C)[C@@H]1NC(=O)[C@@H]2CSCN2C(=O)[C@H](Cc2ccccc2)N(C)C(=O)[C@H](Cc2ccccc2)NC(=O)[C@H](C(C)C)N(C)C(=O)[C@@H]([C@H](C)CC)OC(=O)[C@H](C(C)(C)O)N(C)C(=O)[C@H](CC(C)C)NC(=O)[C@H](C(C)C)N(C)C1=O [Compound 10] (cyclo(F[NMeF][Thz][aIle][NMeV]L[NMeVal(β-OH)][X1][NMeV])),0.05,0.39,0.20,0.05,6.25,–,–,–,–,–
